Measurements as given in paper PMC6919601, “Identification of Plasmodium dipeptidyl aminopeptidase allosteric inhibitors by high throughput screening” (PLoS ONE, 2019).
Out of some 110,000 compounds screened, about 230 (0.21%) showed an effect of 50% or more. Some of the results follow.

Target: DPAP1 (Plasmodium falciparum, UniProt Q8IIJ9)
Assay: primary screen, percent inhibition; read by cleavage of a fluorogenic dipeptide substrate; higher = more effect of the substance
Set-up: species or system P. falciparum D10 trophozoite lysates; single well
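Also: 30 min substrate incubation versus DMSO and 10 µM JCP410 controls.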

Chain of DPAP1 (Q8IIJ9 whole entry, looked up): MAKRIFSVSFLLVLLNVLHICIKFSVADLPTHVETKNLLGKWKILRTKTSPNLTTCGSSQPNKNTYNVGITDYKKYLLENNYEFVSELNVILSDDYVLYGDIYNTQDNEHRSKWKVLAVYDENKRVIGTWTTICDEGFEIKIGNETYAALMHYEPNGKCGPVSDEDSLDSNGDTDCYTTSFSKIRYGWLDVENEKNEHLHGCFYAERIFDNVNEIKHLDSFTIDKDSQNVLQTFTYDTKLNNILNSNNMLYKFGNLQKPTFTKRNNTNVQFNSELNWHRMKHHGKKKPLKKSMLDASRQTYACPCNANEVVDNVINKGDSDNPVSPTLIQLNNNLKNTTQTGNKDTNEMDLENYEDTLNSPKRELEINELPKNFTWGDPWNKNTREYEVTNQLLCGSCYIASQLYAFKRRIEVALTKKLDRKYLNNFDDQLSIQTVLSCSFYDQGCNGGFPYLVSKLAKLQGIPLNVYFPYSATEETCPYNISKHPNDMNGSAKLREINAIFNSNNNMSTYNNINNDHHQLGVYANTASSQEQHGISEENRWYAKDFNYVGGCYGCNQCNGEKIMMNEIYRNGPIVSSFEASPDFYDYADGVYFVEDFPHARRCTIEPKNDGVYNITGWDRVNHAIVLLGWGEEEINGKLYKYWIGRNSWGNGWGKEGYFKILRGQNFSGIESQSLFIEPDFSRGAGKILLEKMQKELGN

Row | Compound | % Inhibition @ 10 uM [%]
1 | Cc1cc(CO)sc1C | -0.999
2 | Cc1ccc(-c2cnnc(-c3ccc(Cl)cc3)n2)cc1 | -4.75
3 | COCCNC(=O)c1[nH]c2cc(OC)ccc2c1Sc1ccc(Cl)cc1 | -1.97
4 | O=C(O)c1ccc(NC(=O)c2ccc(Cl)cc2Cl)cc1 | 2.22
5 | Cc1c(Cl)cccc1-n1ncc(C(=O)N2CCCC2)c1C1CCN(C(=O)OC(C)(C)C)CC1 | -0.707
6 | CCN(c1ccccc1)S(=O)(=O)c1ccc(NC(=O)c2ccc(OC)cc2)cc1 | -3.72
7 | Cc1nc2nc(-c3ccc(Cl)cc3Cl)nn2c(C)c1CCC(=O)NCCCOC(C)C | -0.72
8 | Brc1ccccc1OCCCCCN1CCOCC1 | 4.6
9 | c1ccc(-c2cn3c4ccccc4n(CCN4CCCCC4)c3n2)cc1 | 1.27
10 | CSC1=NC2(C[C@H]2c2ccccc2)C(=O)N1C (stereo partly shown) | -0.988
11 | O=C(COc1ccc(Cl)cc1)NCc1nnc(SCC(=O)c2ccccc2)o1 | -1.58
12 | CCOC(=O)c1c(C)c(C(=O)NCCN2CCOCC2)c(C)n1C | 4.88
13 | CCOC(=O)c1c(NC(=O)c2cc(-c3ccccc3O)on2)sc(C)c1C | 3.55
14 | Cc1ccnc(SCCn2c(N3CCC(C(N)=O)CC3)nc3c2c(=O)n(C)c(=O)n3C)n1 | 2.41
15 | Cc1ccc(OCCCN2CCCCC2)c(C)c1 | -14.1
16 | CCN1CCN(C/C=C/c2ccccc2OC)CC1 | -2.34
17 | COc1ccccc1N(CN1C(=O)CCC1=O)C(C)=O | 2.92
18 | Cc1cc(S(=O)(=O)N2CCN=C2c2ccccc2)ccc1F | -3.5
19 | CN(CC(CC(=O)Nc1nncs1)c1ccccc1)S(=O)(=O)c1ccc(Br)cc1 (stereo not shown) | -6.66
20 | O=C(c1ccco1)N1CCN(S(=O)(=O)c2ccc(F)cc2)CC1 | -5.03
21 | COc1ccc(CCNC(=O)CN2C(=O)CSc3nc(C)cc(C)c32)cc1OC | -0.637
22 | Oc1cccc2ccc(/C=C/c3cc4c(cc3Br)OCO4)nc12 | 4.18
23 | Cc1ccc(CNC(=O)Cc2csc3ccccc23)o1 | 1.63
24 | O=C(O)Cn1c2ccccc2c2nnc(SCc3ccccc3F)nc21 | 2.18
25 | CCCCN(CCCn1cnc2c3ccc(OC)cc3nc-2c1O)Cc1ccccc1 | -0.0235

Row | Compound | % Inhibition @ 10 uM [%]
26 | Cc1ccc(NC(=O)CN(c2ccc(Cl)cc2)S(C)(=O)=O)cc1 | -2.44
27 | O=C(c1cc2ccc3cccnc3c2[nH]1)N1CCN(C2CCCCC2)CC1 | 10.6
28 | COc1ccccc1NC(=O)C1=C(C)N=C2CC(C)(C)CC(O)=C2C1c1cccc(Cl)c1 (stereo not shown) | -1.08
29 | Cc1ccc2c(c1)c1c3c(nccn32)CCC1 | 6.08
30 | CCCCOc1ccc(C(=O)CCN2CCOCC2)cc1 | -7.08
31 | COc1ccc(C2C(C(=O)N3CCC(Cc4ccccc4)CC3)c3ccccc3C(=O)N2C)cc1 (stereo not shown) | 5.11
32 | COc1ccc(C/N=C/c2c(NCc3ccc(OC)cc3)nc3c(C)cccn3c2=O)cc1 | -3.63
33 | COC(=O)c1ccc(C2c3c(oc4cc(C)c(C)cc4c3=O)C(=O)N2c2ccc(C)cn2)cc1 (stereo not shown) | -1.33
34 | COc1ccc2c(CNCc3cccc(OC)c3OC)c(C(=O)O)n(Cc3ccc(F)cc3)c2c1 | 3.12
35 | COC(=O)c1ccc(/C=C2/NC(=O)N(Cc3ccc(Br)cc3)C2=O)cc1 | 1.52
36 | C=CC1CN2CCC1CC2[C@@H](OC(=O)c1ccc(OC)cc1)c1ccnc2ccccc12 (stereo partly shown) | -1.86
37 | Cc1ccc(CNC(=O)CCCn2c(=O)c3cccn3c3cccnc32)cc1 | 6.89
38 | CC1=C(C(=O)OC2CCCC2)C(c2cc3c(cc2Br)OCO3)NC(=O)N1 (stereo not shown) | 5.69
39 | Cc1c(C#N)c2ccccc2n1CC(=O)NCc1cccnc1 | 0.726
40 | CC(CCc1ccc(O)cc1)N1CCN(c2ccccn2)CC1 (stereo not shown) | 5.03
41 | COc1ccc(CNCc2ccccc2OC)c(OC)c1 | -2.87
42 | O=C(NCC1c2ccccc2CCN1C(=O)C1CCCCC1)C1CCCCC1 (stereo not shown) | -5.47
43 | CCOc1ccccc1N1CCN(Cc2ccc(O)cc2)CC1 | -3.77
44 | CCC1CCC(N2CCN(c3cccc(Cl)c3)CC2)CC1 (stereo not shown) | -0.446
45 | Cc1nn(C)c(C)c1N1C(=O)c2cccc3c(N)ccc(c23)C1=O | -15.1
46 | CC(O)CN1C(=O)C(O)=C(C(=O)c2ccccc2)C1c1cccnc1 (stereo not shown) | -3.97
47 | Cc1ccc(-c2nc(C(=O)N3CCN(c4ncccn4)CC3)c3n2CCCCC3)cc1 | -4.99
48 | O=C(NCc1ccco1)c1nc(Cn2c(C(F)(F)F)nc3ccccc32)no1 | 1.76
49 | Cc1ccc2oc(=O)c3cc(C(=O)NCC4CCCO4)sc3c2c1 (stereo not shown) | -2.14
